The record followed here is PMC5892938.

The list shows a part of the results. At the low end of the ranking, values are background and their order means little.

The test has as its target GST-SBP-SLBP (stem-loop binding protein) (UniProt Q14493). The experiment in a line: targeted RNA Bind-n-Seq.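 Further: DESeq read counts versus GST-SBP nonspecific binding control pulldown.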 The conditions noted are these: RBNS binding buffer: 25 mM Tris pH 7.5, 150 mM KCl, 3 mM MgCl2, 0.1% Tween, 0.5 mg/mL BSA, 1 mM DTT; 27 nM protein, 750 pM RNA pool; temperature not stated; high values mean tight binding.
For the sequence “GGUCACGUCUCAAUCAACUCAUCUCCAGGAGUUUUCUCCUGCUUAUUCAACAGCUCGCAGUCAAG”, the binding signal (log2 fold change) was -0.0887.
The result for “GGUCACGUCUCAAUCAACUCAGUUUCAGGAGUUUCCUCCUGCUUUUUCAACAGCUCGCAGUCAAG” reads 0.0447.
Turning to “GGUCACGUCUCAAUCAACUCAUCCUCAGGAGUUUUCUCCUGCAUAUUCAACAGCUCGCAGUCAAG”, the binding signal (log2 fold change) came out at 0.138.
As to “GGUCACGUCUCAAUCAACUCAUCUUCAGGAGUUUACUCCUGUUUUUUCAACAGCUCGCAGUCAAG”, the binding signal (log2 fold change) is -0.0386.
In the case of “GGUCACGUCUCAAUCAACUCAAUCGAGGGGGGGAAAACCCCUUUGCCCUCACAUUCAACAGCUCGCAGUCAAG” it was -0.631; in that of “GGUCACGUCUCAAUCAACUCUUCGUCAGGAGUUUCCUCCUGCUUAUUCAACAGCUCGCAGUCAAG”, -0.103; in that of “GGUCACGUCUCAAUCAACUCCACAGAGGGGGGGAAAACCCCUUUACCCUCCUACUCAACAGCUCGCAGUCAAG”, -0.326.
The result for “GGUCACGUCUCAAUCAACUCGUUUUCAGGAGUUUACUCCUGUAUUUUCAACAGCUCGCAGUCAAG” reads -0.0345.
Take “GGUCACGUCUCAAUCAACUCAAUCCCAGGAGUUUUCUCCUGUUAUUUCAACAGCUCGCAGUCAAG”: the binding signal (log2 fold change) is 0.148.
As for “GGUCACGUCUCAAUCAACUCCAAUGAGGGGGGGAAAACCCCUUUACCCUCCAUAUCAACAGCUCGCAGUCAAG”, the binding signal (log2 fold change) worked out at 0.0126.
The result for “GGUCACGUCUCAAUCAACUCAUUAGAGGGGGGGAAAACCCCUUUGCCCUCAUCUUCAACAGCUCGCAGUCAAG” reads 0.356; that for “GGUCACGUCUCAAUCAACUCAUUCCCCAGGGAAAACCCUGGCUAUCUCAACAGCUCGCAGUCAAG”, -0.261.
With “GGUCACGUCUCAAUCAACUCUUCAGAGGGGGGGAAAACCCCUUUACCCUCACACUCAACAGCUCGCAGUCAAG”, the binding signal (log2 fold change) is 0.0521.
As to “GGUCACGUCUCAAUCAACUCCACGGAGGGGGGGAAAACCCCUUUACCCUCACUAUCAACAGCUCGCAGUCAAG”, the binding signal (log2 fold change) was -0.169.
As for “GGUCACGUCUCAAUCAACUCUUCCUCCAGGGAAAUCCCUGGCAAUGUCAACAGCUCGCAGUCAAG”, the binding signal (log2 fold change) was 0.155.
In the case of “GGUCACGUCUCAAUCAACUCAUCCCCAGGAGUUUACUCCUGCUUAUUCAACAGCUCGCAGUCAAG” it was 0.0137.
In the case of “GGUCACGUCUCAAUCAACUCAACUCCCAGGGAAAUCCCUGGCAUAUUCAACAGCUCGCAGUCAAG” it was -0.11; in that of “GGUCACGUCUCAAUCAACUCUAUGUCAGGAGUUUCCUCCUGCUAAUUCAACAGCUCGCAGUCAAG”, -0.0221; in that of “GGUCACGUCUCAAUCAACUCUAGUCCCAGGGAAAGCCCUGGUAAAUUCAACAGCUCGCAGUCAAG”, -0.182.
The result for “GGUCACGUCUCAAUCAACUCAGUCUCCAGGGAAAACCCUGGCUAAUUCAACAGCUCGCAGUCAAG” reads -0.171; that for “GGUCACGUCUCAAUCAACUCUAUCGCAGGAGUUUACUCCUGGUAUCUCAACAGCUCGCAGUCAAG”, 0.0243.
For “GGUCACGUCUCAAUCAACUCAUUCUCAGGAGUUUGCUCCUGCUUUUUCAACAGCUCGCAGUCAAG”, the binding signal (log2 fold change) is -0.229.
In the case of “GGUCACGUCUCAAUCAACUCUUCCCCAGGAGUUUUCUCCUGUUAACUCAACAGCUCGCAGUCAAG” it was -0.181.
In the case of “GGUCACGUCUCAAUCAACUCUUCUCCCAGGGAAAGCCCUGGUUAUUUCAACAGCUCGCAGUCAAG” it was 0.19; in that of “GGUCACGUCUCAAUCAACUCUUCGUCAGGAGUUUUCUCCUGUUUUCUCAACAGCUCGCAGUCAAG”, 0.19.
Regarding “GGUCACGUCUCAAUCAACUCGUCUUCAGGAGUUUCCUCCUGCUUUUUCAACAGCUCGCAGUCAAG”, the binding signal (log2 fold change) was found to be 0.00217.
Turning to “GGUCACGUCUCAAUCAACUCUUCUCCAGGAGUUUUCUCCUGUUUACUCAACAGCUCGCAGUCAAG”, the binding signal (log2 fold change) worked out at 0.296.
Take “GGUCACGUCUCAAUCAACUCAUCUUCCAGGGAAAGCCCUGGUAAAUUCAACAGCUCGCAGUCAAG”: the binding signal (log2 fold change) was -0.163.
Regarding “GGUCACGUCUCAAUCAACUCUCAAGAGGGGGGGAAAACCCCUUUUCCCUCAACAUCAACAGCUCGCAGUCAAG”, the binding signal (log2 fold change) is 0.046.
As for “GGUCACGUCUCAAUCAACUCUAUUCCAGGAGUUUCCUCCUGCUUACUCAACAGCUCGCAGUCAAG”, the binding signal (log2 fold change) is 0.112.
For “GGUCACGUCUCAAUCAACUCUAUCUCAGGAGUUUCCUCCUGCAAACUCAACAGCUCGCAGUCAAG”, the binding signal (log2 fold change) is 0.2.
The result for “GGUCACGUCUCAAUCAACUCAUUCCCAGGAGUUUACUCCUGUUUUCUCAACAGCUCGCAGUCAAG” reads 0.285.
In the case of “GGUCACGUCUCAAUCAACUCAACUUCCAGGGAAACCCCUGGCAAUUUCAACAGCUCGCAGUCAAG”, the binding signal (log2 fold change) was -0.136.
In the case of “GGUCACGUCUCAAUCAACUCUAUUUCCAGGGAAAUCCCUGGCUUUCUCAACAGCUCGCAGUCAAG” it was 0.165; in that of “GGUCACGUCUCAAUCAACUCUUCCCCCAGGGAAAGCCCUGGUAAUUUCAACAGCUCGCAGUCAAG”, -0.0379.
The result for “GGUCACGUCUCAAUCAACUCAUCCUCCAGGGAAAUCCCUGGUUAACUCAACAGCUCGCAGUCAAG” reads 0.0732.
In the case of “GGUCACGUCUCAAUCAACUCUUUCCCAGGAGUUUCCUCCUGUAAUGUCAACAGCUCGCAGUCAAG” it was 0.00484.
Consider “GGUCACGUCUCAAUCAACUCUAUCUCAGGAGUUUUCUCCUGUAUUCUCAACAGCUCGCAGUCAAG”, for which the binding signal (log2 fold change) is -0.0784.
Regarding “GGUCACGUCUCAAUCAACUCAAUUCCCAGGGAAACCCCUGGUUAACUCAACAGCUCGCAGUCAAG”, the binding signal (log2 fold change) was -0.0359.
In the case of “GGUCACGUCUCAAUCAACUCUUUCUCAGGAGUUUUCUCCUGCUAAUUCAACAGCUCGCAGUCAAG”, the binding signal (log2 fold change) is -0.0842.
In the case of “GGUCACGUCUCAAUCAACUCAUUCCCAGGAGUUUACUCCUGUUUAGUCAACAGCUCGCAGUCAAG” it was -0.0435; in that of “GGUCACGUCUCAAUCAACUCCUUAGAGGGGGGGAAAACCCCUUUACCCUCACAUUCAACAGCUCGCAGUCAAG”, -0.154; in that of “GGUCACGUCUCAAUCAACUCUUCCUCAGGAGUUUACUCCUGUUAACUCAACAGCUCGCAGUCAAG”, 0.0496.
In the case of “GGUCACGUCUCAAUCAACUCGUCUUCAGGAGUUUCCUCCUGUAUUUUCAACAGCUCGCAGUCAAG” it was 0.0981; in that of “GGUCACGUCUCAAUCAACUCUAUCUCCAGGGAAAACCCUGGUAAACUCAACAGCUCGCAGUCAAG”, -0.238; in that of “GGUCACGUCUCAAUCAACUCAAUCCCAGGAGUUUGCUCCUGUAUAUUCAACAGCUCGCAGUCAAG”, 0.0558.
The result for “GGUCACGUCUCAAUCAACUCAACUUCAGGAGUUUUCUCCUGCAAACUCAACAGCUCGCAGUCAAG” reads -0.000925; that for “GGUCACGUCUCAAUCAACUCUUUUCCCAGGGAAAUCCCUGGUAUUUUCAACAGCUCGCAGUCAAG”, -0.0337.
